Article PMC4263767, “IL-28B is a Key Regulator of B- and T-Cell Vaccine Responses against Influenza” (PLoS Pathogens, 2014)

System: STAT1 phosphorylation in THP1-derived macrophages
Assay: STAT1 phosphorylation in THP1-derived macrophages (flow cytometry)
Format: cell-based
Conditions: after stimulation, 5 experiments

IFN-α
time of peak STAT1 phosphorylation: 15 min
